Measurements published in US20100330089A1 (Pfizer, published 2010).
Changes are numbered by the printed parent chain. Values belong to the binder of their own block, whether it stands above or below them.

What was measured:
[1] = biological target: T1, Human CD20 (UniProt P11836 1-297); experiment: flow cytometry
T1 chain: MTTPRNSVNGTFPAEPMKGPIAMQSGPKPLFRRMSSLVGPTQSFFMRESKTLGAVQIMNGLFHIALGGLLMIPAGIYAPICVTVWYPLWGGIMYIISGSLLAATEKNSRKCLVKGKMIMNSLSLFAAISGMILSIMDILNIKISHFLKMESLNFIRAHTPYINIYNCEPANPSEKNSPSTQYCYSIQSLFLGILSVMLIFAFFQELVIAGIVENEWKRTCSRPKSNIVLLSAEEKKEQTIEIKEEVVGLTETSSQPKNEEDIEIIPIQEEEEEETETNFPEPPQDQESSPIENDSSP

[2] = biological target: T2, Human CD20 (human, UniProt P11836 1-297); experiment: flow cytometry on primary human B cells, binder at 1.1 ug/ml (first block)
T2 construct: also called Bp35
T2 sequence: T1 chain

[3] = biological target: T2, Human CD20; experiment: flow cytometry on primary human B cells, binder at 1.1 ug/ml (second block)
[4] = biological target: T2, Human CD20; experiment: cell-based or functional assay
[5] = biological target: T2, Human CD20; experiment: flow cytometry on primary human B cells, binder at 0.37 ug/ml (first block)
[6] = biological target: T2, Human CD20; experiment: flow cytometry on primary human B cells, binder at 0.12 ug/ml (second block)
[7] = biological target: T2, Human CD20; experiment: flow cytometry on primary human B cells, binder at 0.12 ug/ml (first block)
[8] = biological target: T2, Human CD20; experiment: flow cytometry on primary human B cells, binder at 10 ug/ml (second block)
[9] = biological target: T2, Human CD20; experiment: flow cytometry on primary human B cells, binder at 10 ug/ml (first block)
[10] = biological target: T2, Human CD20; experiment: flow cytometry on primary human B cells, binder at 0.04 ug/ml (second block)

- EC50 [1]: 0.301 µg/mL
B2: 2LM 19-3 csc (Fc fusion)
chain: EIVLTQSPATLSLSPGERATLSCRASQSVSYIVWYQQKPGQAPRLLIYAPSNLASGIPARFSGSGSGTDFTLTISSLEPEDFAVYYCQQWSFNPPTFGQGTKVEIKDGGGSGGGGSGGGGSSQVQLVQSGAEVKKPGASVKVSCKASGYTFTSYNMHWVRQAPGQGLEWMGAIYPGNGDTSYNQKFKGRVTMTRDTSTSTVYMELSSLRSEDTAVYYCARSYYSNSYWYFDLWGRGTLVTVSSDQ[skipping human IgG1 Fc with C226S P230S (EU numbers)]
notes: Humanized SMIP; Hinge and Fc are assigned from the name's suffix; also called 2LM 19-3 CSCS

- EC50 [1]: 0.322 µg/mL
B3: 2LM 20-4 csc (Fc fusion)
chain: B2 chain with Q27S
notes: Humanized SMIP; also called 2 LM 20-4 CSCS

- EC50 [1]: 1.55 µg/mL
B5: 018008 csc (Fc fusion)
chain: EIVLTQSPATLSLSPGERATLSCRASQSVSYMHWYQQKPGQAPRLLIYAPSNLASGIPARFSGSGSGTDFTLTISSLEPEDFAVYYCQQWSFNPPTFGQGTKVEIKDGGGSGGGGSGGGGTGEVQLVQSGAEVKKPGESLKISCKGSGYSFTSYNMHWVRQMPGKGLEWMGAIYPGNGDTSYNQKFKGQVTISADKSISTAYLQWSSLKASDTAMYYCARVVYYSNSYWYFDLWGRGTLVTVSSDQ[skipping human IgG1 Fc with C226S P230S (EU numbers)]
notes: Humanized SMIP; Hinge and Fc are assigned from the name's suffix

Second part, the binder before the results:

B1: 2LM 16 csc (Fc fusion)
chain: B2 chain with Q27S, I32M, V33H
- EC50 [1]: 0.354 µg/mL

B4: 18008 sccp (Fc fusion)
chain: EIVLTQSPATLSLSPGERATLSCRASQSVSYMHWYQQKPGQAPRLLIYAPSNLASGIPARFSGSGSGTDFTLTISSLEPEDFAVYYCQQWSFNPPTFGQGTKVEIKDGGGSGGGGSGGGGTGEVQLVQSGAEVKKPGESLKISCKGSGYSFTSYNMHWVRQMPGKGLEWMGAIYPGNGDTSYNQKFKGQVTISADKSISTAYLQWSSLKASDTAMYYCARVVYYSNSYWYFDLWGRGTLVTVSSDQ[skipping human IgG1 Fc with changes]
notes: as for B5
- MFI [2]: 44.8 MFI
- MFI [3]: 20.7 MFI
- % lysis (CDC on Ramos cells), 0.12 ug/ml [4]: 32.2 % lysis
- % lysis (CDC on Ramos cells), 0.37 ug/ml [4]: 47.9 % lysis
- % lysis (CDC on Ramos cells), 1.1 ug/ml [4]: 57.1 % lysis
- % lysis (CDC on Ramos cells), 10 ug/ml [4]: 72.5 % lysis
- % lysis (CDC on Ramos cells), 1 nm [4]: 50 % lysis
- % lysis (CDC on Ramos cells), 4 nm [4]: 61.4 % lysis
- % lysis (CDC on Ramos cells), 11 nm [4]: 66.7 % lysis
- % lysis (CDC on Ramos cells), 100 nm [4]: 73.9 % lysis
- MFI [5]: 24.8 MFI
- MFI [6]: 12.9 MFI
- MFI [7]: 13 MFI
- MFI [8]: 64.7 MFI
- MFI [9]: 79.5 MFI
- MFI [10]: 6.1 MFI
- EC50 [1]: 1.75 µg/mL
